Results reported in the supplement of paper PMC8728848.
This is one part of the list.

How the values were obtained:
Experiment in all cases: glycan array binding signal (z-score within array); higher = stronger binding
Details in all cases: glycan notation: IUPAC condensed, linker removed
[1] = target: Gal(b1-4)GlcNAc(b1-3)Gal(b1-4)GlcNAc(b1-2)[Gal(b1-4)GlcNAc(b1-3)Gal(b1-4)GlcNAc(b1-6)]Man(a1-6)[Gal(b1-4)GlcNAc(b1-3)Gal(b1-4)GlcNAc(b1-2)Man(a1-3)]Man(b1-4)GlcNAc(b1-4)[Fuc(a1-6)]GlcNAc
Outline: (§1)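 Arrays were curated from the Consortium for Functional Glycomics database, 3228 in total, and kept only where the protein sequence was available. Binding is expressed as a within-array Z-score. This score was averaged across arrays of the same protein sequence at different concentrations or buffers and across linkers, and negative values can be read as non-binding.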

[2] = target: Gal(b1-4)GlcNAc(b1-3)Gal(b1-4)GlcNAc(b1-3)Gal(b1-4)GlcNAc
Outline: as §1

[3] = target: Gal(b1-4)GlcNAc(b1-3)Gal(b1-4)GlcNAc(b1-3)Gal(b1-4)GlcNAc(b1-2)Man(a1-3)[Gal(b1-4)GlcNAc(b1-3)Gal(b1-4)GlcNAc(b1-3)Gal(b1-4)GlcNAc(b1-2)Man(a1-6)]Man(b1-4)GlcNAc(b1-4)GlcNAc
Outline: as §1

[4] = target: Gal(b1-4)GlcNAc(b1-3)Gal(b1-4)GlcNAc(b1-3)Gal(b1-4)GlcNAc(b1-2)Man(a1-3)[Gal(b1-4)GlcNAc(b1-3)Gal(b1-4)GlcNAc(b1-3)Gal(b1-4)GlcNAc(b1-2)Man(a1-6)]Man(b1-4)GlcNAc(b1-4)[Fuc(a1-6)]GlcNAc
Outline: as §1

[5] = target: Gal(b1-4)GlcNAc(b1-3)Gal(b1-4)GlcNAc(b1-3)Gal(b1-4)GlcNAc(b1-2)[Gal(b1-4)GlcNAc(b1-3)Gal(b1-4)GlcNAc(b1-3)Gal(b1-4)GlcNAc(b1-6)]Man(a1-6)[Gal(b1-4)GlcNAc(b1-3)Gal(b1-4)GlcNAc(b1-3)Gal(b1-4)GlcNAc(b1-2)Man(a1-3)]Man(b1-4)GlcNAc(b1-4)[Fuc(a1-6)]GlcNAc
Outline: as §1

[6] = target: Gal(b1-4)GlcNAc(b1-3)Gal(b1-4)GlcNAc(b1-3)Gal(b1-4)GlcNAc(b1-3)Gal(b1-4)GlcNAc(b1-2)Man(a1-3)[Gal(b1-4)GlcNAc(b1-3)Gal(b1-4)GlcNAc(b1-3)Gal(b1-4)GlcNAc(b1-3)Gal(b1-4)GlcNAc(b1-2)Man(a1-6)]Man(b1-4)GlcNAc(b1-4)GlcNAc
Outline: as §1

[7] = target: Gal(b1-4)GlcNAc(b1-3)Gal(b1-4)GlcNAc(b1-3)Gal(b1-4)GlcNAc(b1-3)Gal(b1-4)GlcNAc(b1-2)Man(a1-3)[Gal(b1-4)GlcNAc(b1-3)Gal(b1-4)GlcNAc(b1-3)Gal(b1-4)GlcNAc(b1-3)Gal(b1-4)GlcNAc(b1-2)Man(a1-6)]Man(b1-4)GlcNAc(b1-4)[Fuc(a1-6)]GlcNAc
Outline: as §1

[8] = target: Gal(b1-4)GlcNAc(b1-3)Gal(b1-4)GlcNAc(b1-3)Gal(b1-4)GlcNAc(b1-3)Gal(b1-4)GlcNAc(b1-2)[Gal(b1-4)GlcNAc(b1-3)Gal(b1-4)GlcNAc(b1-3)Gal(b1-4)GlcNAc(b1-3)Gal(b1-4)GlcNAc(b1-6)]Man(a1-6)[Gal(b1-4)GlcNAc(b1-3)Gal(b1-4)GlcNAc(b1-3)Gal(b1-4)GlcNAc(b1-3)Gal(b1-4)GlcNAc(b1-2)Man(a1-3)]Man(b1-4)GlcNAc(b1-4)[Fuc(a1-6)]GlcNAc
Outline: as §1

[9] = target: Gal(b1-4)GlcNAc(b1-3)Gal(b1-4)GlcNAc(b1-3)Gal(b1-4)GlcNAc(b1-3)Gal(b1-4)GlcNAc(b1-3)Gal(b1-4)GlcNAc(b1-2)Man(a1-3)[Gal(b1-4)GlcNAc(b1-3)Gal(b1-4)GlcNAc(b1-3)Gal(b1-4)GlcNAc(b1-3)Gal(b1-4)GlcNAc(b1-3)Gal(b1-4)GlcNAc(b1-2)Man(a1-6)]Man(b1-4)GlcNAc(b1-4)GlcNAc
Outline: as §1

[10] = target: Gal(b1-4)GlcNAc(b1-3)Gal(b1-4)GlcNAc(b1-3)Gal(b1-4)GlcNAc(b1-3)Gal(b1-4)GlcNAc(b1-3)Gal(b1-4)GlcNAc(b1-2)Man(a1-3)[Gal(b1-4)GlcNAc(b1-3)Gal(b1-4)GlcNAc(b1-3)Gal(b1-4)GlcNAc(b1-3)Gal(b1-4)GlcNAc(b1-3)Gal(b1-4)GlcNAc(b1-2)Man(a1-6)]Man(b1-4)GlcNAc(b1-4)[Fuc(a1-6)]GlcNAc
Outline: as §1

[11] = target: Gal(b1-4)GlcNAc(b1-3)Gal(b1-4)GlcNAc(b1-3)Gal(b1-4)GlcNAc(b1-3)Gal(b1-4)GlcNAc(b1-3)Gal(b1-4)GlcNAc(b1-2)[Gal(b1-4)GlcNAc(b1-3)Gal(b1-4)GlcNAc(b1-3)Gal(b1-4)GlcNAc(b1-3)Gal(b1-4)GlcNAc(b1-3)Gal(b1-4)GlcNAc(b1-6)]Man(a1-6)[Gal(b1-4)GlcNAc(b1-3)Gal(b1-4)GlcNAc(b1-3)Gal(b1-4)GlcNAc(b1-3)Gal(b1-4)GlcNAc(b1-3)Gal(b1-4)GlcNAc(b1-2)Man(a1-3)]Man(b1-4)GlcNAc(b1-4)[Fuc(a1-6)]GlcNAc
Outline: as §1

[12] = target: Gal(b1-4)GlcNAc(b1-3)Gal(b1-4)GlcNAc(b1-3)Gal(b1-4)GlcNAc(b1-3)Gal(b1-4)GlcNAc(b1-3)Gal(b1-4)GlcNAc(b1-3)Gal(b1-4)GlcNAc(b1-2)Man(a1-3)[Gal(b1-4)GlcNAc(b1-3)Gal(b1-4)GlcNAc(b1-3)Gal(b1-4)GlcNAc(b1-3)Gal(b1-4)GlcNAc(b1-3)Gal(b1-4)GlcNAc(b1-3)Gal(b1-4)GlcNAc(b1-2)Man(a1-6)]Man(b1-4)GlcNAc(b1-4)GlcNAc
Outline: as §1

[13] = target: Gal(b1-4)GlcNAc(b1-3)Gal(b1-4)GlcNAc(b1-3)GalNAc
Outline: as §1

[14] = target: Gal(b1-4)GlcNAc(b1-3)Gal(b1-4)GlcNAc(b1-3)[Gal(b1-4)GlcNAc(b1-3)Gal(b1-4)GlcNAc(b1-6)]GalNAc
Outline: as §1

[15] = target: Gal(b1-4)GlcNAc(b1-3)Gal(b1-4)GlcNAc(b1-6)[Gal(b1-3)]GalNAc
Outline: as §1

[16] = target: Gal(b1-4)GlcNAc(b1-3)Gal(b1-4)[Fuc(a1-3)]GlcNAc(b1-3)Gal(b1-4)[Fuc(a1-3)]GlcNAc
Outline: as §1

[17] = target: Gal(b1-4)GlcNAc(b1-3)GalNAc
Outline: as §1

[18] = target: Gal(b1-4)GlcNAc(b1-3)[Fuc(a1-3)GlcNAc(b1-6)]Gal(b1-4)Glc
Outline: as §1

[19] = target: Gal(b1-4)GlcNAc(b1-3)[Gal(b1-4)GlcNAc(b1-6)]Gal(b1-4)GlcNAc
Outline: as §1

[20] = target: Gal(b1-4)GlcNAc(b1-3)[GlcNAc(b1-6)]Gal(b1-4)GlcNAc
Outline: as §1

[21] = target: Gal(b1-4)GlcNAc(b1-6)Gal(b1-4)GlcNAc
Outline: as §1

[22] = target: Gal(b1-4)GlcNAc(b1-6)GalNAc
Outline: as §1

[23] = target: Gal(b1-4)GlcNAc(b1-6)[Gal(b1-3)]GalNAc
Outline: as §1

[24] = target: Gal(b1-4)GlcNAc(b1-6)[Gal(b1-4)GlcNAc(b1-3)]GalNAc
Outline: as §1

[25] = target: Gal(b1-4)GlcNAc6P
Outline: as §1

[26] = target: Gal(b1-6)Gal
Outline: as §1

[27] = target: Gal3S(b1-3)GalNAc
Outline: as §1

[28] = target: Gal3S(b1-3)GlcNAc
Outline: as §1

[29] = target: Gal3S(b1-3)[Fuc(a1-4)]GlcNAc
Outline: as §1

[30] = target: Gal3S(b1-4)Glc
Outline: as §1

[31] = target: Gal3S(b1-4)Glc6S
Outline: as §1

[32] = target: Gal3S(b1-4)GlcNAc
Outline: as §1

[33] = target: Gal3S(b1-4)[Fuc(a1-3)]Glc6S
Outline: as §1

[34] = target: Gal3S(b1-4)[Fuc(a1-3)]GlcNAc
Outline: as §1

[35] = target: Gal3S(b1-4)[Fuc(a1-3)]GlcNAc6S
Outline: as §1

[36] = target: Gal3S4S(b1-4)GlcNAc
Outline: as §1

[37] = target: Gal3S6S(b1-4)GlcNAc
Outline: as §1

B1: Pbx1 (Cryptococcus neoformans) (protein)
chain: ATTKCLVSGDQDSINNALALGGEGTTVTLCPGSVHRLNSSIIFTAPSQTLTTLGNPKDRNRAMLVVDGEDLACAIRADCKQCSHAMIRSLVIDGNRPQLLRIPKGDALIEVGNAESQTVRDCKLYEPRGWSALHFREGDERQCRFGHIVDNEIGPCGEEWDDEYDSMDETKPLWGNPRADGISLACKDSIVERNVVYDATDGAIVLFGSAGSTVKNNHVYARTRVILGGINLVDYEPWDGDYTNVKVHHNHLYALGRYFKVGIVIGPASWSDDTESVVHSASVTDNEFSGGYWGYGIVVASAKNFEVLRNKVIWDGEQGVARFSGVPGSRCPKAPENGKPTAFLINRGSAKGIFQDDFVNGEVQHIICLNPDQDPPYKPWRFRDSPEAIAAKQAENPTANSAFDSRIAEALVSYQMSLLNSMDAMTQKVEHLTNPIVDDALPFVHEHERAEADKKARQEASRKEKESGNKDVDMLNVKVEELEKSGRRLKKALDGLKSDFEGLSGRLKKSADENKPIIETIFVTSQNLLLGATSQQN
Question: For B1, which “glycan array binding signal (z-score)” value [1] is on record?
Answer: 0.495

Question: What about the “glycan array binding signal (z-score)” value [2] of the same binder?
Answer: -0.34

Question: What about the “glycan array binding signal (z-score)” value [3] of the same binder?
Answer: 2.41

Question: What about the “glycan array binding signal (z-score)” value [4] of the same binder?
Answer: 0.691

Question: And the “glycan array binding signal (z-score)” value [5]?
Answer: 0.991

Question: What about the “glycan array binding signal (z-score)” value [6] of the same binder?
Answer: 0.501

Question: And the “glycan array binding signal (z-score)” value [7]?
Answer: -0.553

Question: And the “glycan array binding signal (z-score)” value [8]?
Answer: -0.055

Question: And the “glycan array binding signal (z-score)” value [9]?
Answer: 0.178

Question: What about the “glycan array binding signal (z-score)” value [10] of the same binder?
Answer: 5.6

Question: And the “glycan array binding signal (z-score)” value [11]?
Answer: 4.38

Question: What about the “glycan array binding signal (z-score)” value [12] of the same binder?
Answer: 1.03

Question: What about the “glycan array binding signal (z-score)” value [13] of the same binder?
Answer: -0.312

Question: And the “glycan array binding signal (z-score)” value [14]?
Answer: -0.195

Question: What about the “glycan array binding signal (z-score)” value [15] of the same binder?
Answer: 2.33

Question: And the “glycan array binding signal (z-score)” value [16]?
Answer: -0.58

Question: And the “glycan array binding signal (z-score)” value [17]?
Answer: -0.69

Question: And the “glycan array binding signal (z-score)” value [18]?
Answer: -0.416

Question: What about the “glycan array binding signal (z-score)” value [19] of the same binder?
Answer: -0.545

Question: What about the “glycan array binding signal (z-score)” value [20] of the same binder?
Answer: -0.407

Question: What about the “glycan array binding signal (z-score)” value [21] of the same binder?
Answer: -0.231

Question: And the “glycan array binding signal (z-score)” value [22]?
Answer: -0.106

Question: What about the “glycan array binding signal (z-score)” value [23] of the same binder?
Answer: 0.047

Question: And the “glycan array binding signal (z-score)” value [24]?
Answer: -0.486

Question: And the “glycan array binding signal (z-score)” value [25]?
Answer: 0.187

Question: What about the “glycan array binding signal (z-score)” value [26] of the same binder?
Answer: -0.233

Question: What about the “glycan array binding signal (z-score)” value [27] of the same binder?
Answer: -0.637

Question: And the “glycan array binding signal (z-score)” value [28]?
Answer: -0.239

Question: And the “glycan array binding signal (z-score)” value [29]?
Answer: -0.47

Question: And the “glycan array binding signal (z-score)” value [30]?
Answer: 1.28

Question: What about the “glycan array binding signal (z-score)” value [31] of the same binder?
Answer: 1.12

Question: And the “glycan array binding signal (z-score)” value [32]?
Answer: 0.074

Question: And the “glycan array binding signal (z-score)” value [33]?
Answer: 1.23

Question: And the “glycan array binding signal (z-score)” value [34]?
Answer: -0.485

Question: What about the “glycan array binding signal (z-score)” value [35] of the same binder?
Answer: -0.436

Question: What about the “glycan array binding signal (z-score)” value [36] of the same binder?
Answer: -0.067

Question: And the “glycan array binding signal (z-score)” value [37]?
Answer: -0.248
